# Experimental data from US8633183B2 (priority 2010, dated 2014).
# Read-outs that look alike come from different tables or passages of the source.
# Tested on: PC3 (human prostate carcinoma cell line) cells
# Assay: cells
# [1] = PC-3, 72 h, read-out: EC50 PC3 [nM]
Structure (SMILES),EC50 [1] [nM],EC50 (read-out: EC50 PC3) [nM]
Cc1ncnc(-c2ccc(C(=O)N(C)C)c(F)c2)c1C#Cc1ccc(N)nc1 [Example C-11],67,–
CCc1ncnc(-c2ccc(C(=O)N3CCC(N4CCCC4)C3)c(F)c2)c1C#Cc1ccc(N)nc1 [Example D-235],–,78
Cc1ncnc(-c2ccc(C3CC3)nc2)c1C#Cc1ccc(N)nc1 [Example C-26],170,–
CCc1ncnc(-c2ccc(C(=O)N3CCN(CC(=O)N(C)C)CC3)c(F)c2)c1C#Cc1ccc(N)nc1 [Example D-85],–,56
CCc1ncnc(-c2ccc(C(=O)N3CCOCC3)c(OC)c2)c1C#Cc1ccc(N)nc1 [Example D-166],–,116
CCc1ncnc(-c2ccc(C(=O)N3CCC(O)(c4ccccc4)CC3)c(F)c2)c1C#Cc1ccc(N)nc1 [Example D-126],–,144
CCc1ncnc(-c2ccc(C(=O)NC)c(Cl)c2)c1C#Cc1ccc(N)nc1 [Example C-12],46,–
CCc1ncnc(-c2ccc(C(=O)N3CCN(C4CCS(=O)(=O)C4)CC3)c(F)c2)c1C#Cc1ccc(N)nc1 [Example D-86],–,39
CCc1ncnc(-c2ccc(C(=O)N3CCN(CCN(C)C)CC3)c(F)c2)c1C#Cc1ccc(N)nc1C [Example D-26],–,140
Cc1ncnc(-c2ccc(C(=O)N3CCCCO3)c(Cl)c2)c1C#Cc1ccc(N)nc1 [Example D-231],–,78
CCc1ncnc(-c2ccc(C(=O)N3CCN(CC(F)F)CC3)c(OC)c2)c1C#Cc1ccc(N)nc1 [Example D-47],–,58
CCc1ncnc(-c2ccc(S(C)(=O)=O)cc2)c1C#Cc1ccc(C)nc1 [Example C-17],603,–
CCc1ncnc(-c2ccc(C(=O)N3CCCC(O)C3)c(Cl)c2)c1C#Cc1ccc(N)nc1 [Example D-147],–,33
CCc1ncnc(-c2ccc(C(=O)NC)c(Cl)c2)c1C#Cc1ccc(C)nc1 [Example C-16],627,–
CCc1ncnc(-c2ccc(C(=O)N3CCC(O)(CC)CC3)c(F)c2)c1C#Cc1ccc(N)nc1 [Example D-125],–,93
CCc1ncnc(-c2ccc(C(=O)NC)c(F)c2)c1C#Cc1ccc(N)nc1 [Example D-5],–,125
CCc1ncnc(-c2ccc(C(=O)NCCN3CCOCC3)c(OC)c2)c1C#Cc1ccc(N)nc1 [Example D-182],–,180
CCc1ncnc(-c2ccc(C(=O)N3CCN(C(C)C)CC3)c(OC)c2)c1C#Cc1ccc(N)nc1 [Example D-50],–,80
CCc1ncnc(-c2ccc(C(=O)N3CCN(c4ccncc4)CC3)c(F)c2)c1C#Cc1ccc(N)nc1 [Example D-93],–,76

Structure (SMILES),EC50 [1] [nM],EC50 (read-out: EC50 PC3) [nM]
CCc1ncnc(-c2ccc(C(=O)N3CCCOCC3)c(Cl)c2)c1C#Cc1ccc(N)nc1 [Example D-157],–,43
CCc1ncnc(-c2ccnc(C)c2)c1C#Cc1ccc(N)nc1 [Example C-27],138,–
CCc1ncnc(-c2ccc(C(=O)NC3CCCN(C4CCN(C)CC4)C3)c(F)c2)c1C#Cc1ccc(N)nc1 [Example D-205],–,308
COCCN1CCN(C(=O)c2ccc(-c3ncnc(C)c3C#Cc3ccc(N)nc3)cc2)CC1 [Example D-189],–,63
CCc1ncnc(-c2cccc(C(=O)N(CC)CC)c2)c1C#Cc1ccc(N)nc1 [Example C-44],543,–
Cc1ncnc(-c2ccc(C(F)(F)F)nc2)c1C#Cc1ccc(N)nc1 [Example C-21],265,–
CCc1ncnc(-c2ccc(C(=O)N(C)CC3CCN(C)CC3)c(F)c2)c1C#Cc1ccc(N)nc1 [Example D-76],–,93
CCc1ncnc(-c2ccc(C(=O)N3CCC(C(F)(F)F)CC3)c(F)c2)c1C#Cc1ccc(N)nc1C [Example D-14],–,72
Cc1ncnc(-c2ccc(C(C)(C)C#N)cc2)c1C#Cc1ccc(N)nc1 [Example C-2],85,–
Cc1ncnc(-c2ccc(C(=O)N3CC(O)CO3)c(Cl)c2)c1C#Cc1ccc(N)nc1 [Example D-232],–,101
CCc1ncnc(-c2ccc(C(=O)N3CCC(C)(O)CC3)c(Cl)c2)c1C#Cc1ccc(N)nc1 [Example D-143],–,76
CCc1ncnc(-c2ccc(C(=O)NC3CC(N4CCN(C)CC4)C3)c(F)c2)c1C#Cc1ccc(N)nc1 [Example D-198],–,55
CCc1ncnc(-c2ccc(C(=O)N(C)CCCN(C)C)c(F)c2)c1C#Cc1ccc(N)nc1 [Example D-9],–,140
CCc1ncnc(-c2ccc(C(=O)N3CCC(N4CCN(C)CC4)CC3)c(F)c2)c1C#Cc1ccc(N)nc1 [Example D-62],–,56
CCc1ncnc(-c2ccc(C(=O)N3CCN(c4ccccc4)CC3)c(F)c2)c1C#Cc1ccc(N)nc1 [Example D-98],–,78
Cc1ncnc(-c2cccc(C(=O)N(C)C)c2)c1C#Cc1ccc(N)nc1 [Example C-10],134,–
Cc1ncnc(-c2ccc(Cl)c(C(=O)N3CCCCC3)c2)c1C#Cc1ccc(N)nc1 [Example C-42],503,–
CCc1ncnc(-c2ccc(C(=O)N3CCN4CCCCC4C3)c(F)c2)c1C#Cc1ccc(N)nc1C [Example D-18],–,41
Cc1ccc(-c2ncnc(C)c2C#Cc2ccc(N)nc2)cn1 [Example C-24],153,–
